To fix the notation:
B1: full-length human CASP4 (protein, UniProt P49662 1-377)
chain: MAEGNHRKKPLKVLESLGKDFLTGVLDNLVEQNVLNWKEEEKKKYYDAKTEDKVRVMADSMQEKQRMAGQMLLQTFFNIDQISPNKKAHPNMEAGPPESGESTDALKLCPHEEFLRLCKERAEEIYPIKERNNRTRLALIICNTEFDHLPPRNGADFDITGMKELLEGLDYSVDVEENLTARDMESALRAFATRPEHKSSDSTFLVLMSHGILEGICGTVHDEKKPDVLLYDTIFQIFNNRNCLSLKDKPKVIIVQACRGANRGELWVRDSPASLEVASSQSSENLEEDAVYKTHVEKDFIAFCSSTPHNVSWRDSTMGSIFITQLITCFQKYSWCCHLEEVFRKVQQSFETPRAKAQMPTIERLSMTRYFYLFPGN
B2: full-length human caspase 2 (protein, UniProt P42575 1-452)
chain: MAAPSAGSWSTFQHKELMAADRGRRILGVCGMHPHHQETLKKNRVVLAKQLLLSELLEHLLEKDIITLEMRELIQAKVGSFSQNVELLNLLPKRGPQAFDAFCEALRETKQGHLEDMLLTTLSGLQHVLPPLSCDYDLSLPFPVCESCPLYKKLRLSTDTVEHSLDNKDGPVCLQVKPCTPEFYQTHFQLAYRLQSRPRGLALVLSNVHFTGEKELEFRSGGDVDHSTLVTLFKLLGYDVHVLCDQTAQEMQEKLQNFAQLPAHRVTDSCIVALLSHGVEGAIYGVDGKLLQLQEVFQLFDNANCPSLQNKPKMFFIQACRGDETDRGVDQQDGKNHAGSPGCEESDAGKEKLPKMRLPTRSDMICGYACLKGTAAMRNTKRGSWYIEALAQVFSERACDMHVADMLVKVNALIKDREGYAPGTEFHRCKEMSEYCSTLCRHLYLFPGHPPT
B3: full-length human caspase 10 (protein, UniProt Q92851 1-521)
chain: MKSQGQHWYSSSDKNCKVSFREKLLIIDSNLGVQDVENLKFLCIGLVPNKKLEKSSSASDVFEHLLAEDLLSEEDPFFLAELLYIIRQKKLLQHLNCTKEEVERLLPTRQRVSLFRNLLYELSEGIDSENLKDMIFLLKDSLPKTEMTSLSFLAFLEKQGKIDEDNLTCLEDLCKTVVPKLLRNIEKYKREKAIQIVTPPVDKEAESYQGEEELVSQTDVKTFLEALPQESWQNKHAGSNGNRATNGAPSLVSRGMQGASANTLNSETSTKRAAVYRMNRNHRGLCVIVNNHSFTSLKDRQGTHKDAEILSHVFQWLGFTVHIHNNVTKVEMEMVLQKQKCNPAHADGDCFVFCILTHGRFGAVYSSDEALIPIREIMSHFTALQCPRLAEKPKLFFIQACQGEEIQPSVSIEADALNPEQAPTSLQDSIPAEADFLLGLATVPGYVSFRHVEEGSWYIQSLCNHLKKLVPRMLKFLEKTMEIRGRKRTVWGAKQISATSLPTAISAQTPRPPMRRWSSVS
B4: full-length human caspase 6 (protein, UniProt P55212 1-293)
chain: MSSASGLRRGHPAGGEENMTETDAFYKREMFDPAEKYKMDHRRRGIALIFNHERFFWHLTLPERRGTCADRDNLTRRFSDLGFEVKCFNDLKAEELLLKIHEVSTVSHADADCFVCVFLSHGEGNHIYAYDAKIEIQTLTGLFKGDKCHSLVGKPKIFIIQACRGNQHDVPVIPLDVVDNQTEKLDTNITEVDAASVYTLPAGADFLMCYSVAEGYYSHRETVNGSWYIQDLCEMLGKYGSSLEFTELLTLVNRKVSQRRVDFCKDPSAIGKKQVPCFASMLTKKLHFFPKSN
B5: full-length human caspase 7 (protein, UniProt P55210 1-303)
chain: MADDQGCIEEQGVEDSANEDSVDAKPDRSSFVPSLFSKKKKNVTMRSIKTTRDRVPTYQYNMNFEKLGKCIIINNKNFDKVTGMGVRNGTDKDAEALFKCFRSLGFDVIVYNDCSCAKMQDLLKKASEEDHTNAACFACILLSHGEENVIYGKDGVTPIKDLTAHFRGDRCKTLLEKPKLFFIQACRGTELDDGIQADSGPINDTDANPRYKIPVEADFLFAYSTVPGYYSWRSPGRGSWFVQALCSILEEHGKDLEIMQILTRVNDRVARHFESQSDDPHFHEKKQIPCVVSMLTKELYFSQ

Amino acid sequences for entries named in this document (tags omitted).
UniProt P55211: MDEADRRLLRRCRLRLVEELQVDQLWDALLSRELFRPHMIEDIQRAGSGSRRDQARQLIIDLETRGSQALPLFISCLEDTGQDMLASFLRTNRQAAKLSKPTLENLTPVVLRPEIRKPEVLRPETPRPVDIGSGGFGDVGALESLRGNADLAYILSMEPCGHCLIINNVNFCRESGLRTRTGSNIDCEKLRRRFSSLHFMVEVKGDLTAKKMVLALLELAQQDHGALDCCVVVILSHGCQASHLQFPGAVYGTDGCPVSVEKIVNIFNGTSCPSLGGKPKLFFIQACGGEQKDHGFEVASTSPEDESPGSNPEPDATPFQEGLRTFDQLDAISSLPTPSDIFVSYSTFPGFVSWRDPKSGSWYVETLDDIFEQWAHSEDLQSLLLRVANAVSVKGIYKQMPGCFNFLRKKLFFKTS
UniProt P29466: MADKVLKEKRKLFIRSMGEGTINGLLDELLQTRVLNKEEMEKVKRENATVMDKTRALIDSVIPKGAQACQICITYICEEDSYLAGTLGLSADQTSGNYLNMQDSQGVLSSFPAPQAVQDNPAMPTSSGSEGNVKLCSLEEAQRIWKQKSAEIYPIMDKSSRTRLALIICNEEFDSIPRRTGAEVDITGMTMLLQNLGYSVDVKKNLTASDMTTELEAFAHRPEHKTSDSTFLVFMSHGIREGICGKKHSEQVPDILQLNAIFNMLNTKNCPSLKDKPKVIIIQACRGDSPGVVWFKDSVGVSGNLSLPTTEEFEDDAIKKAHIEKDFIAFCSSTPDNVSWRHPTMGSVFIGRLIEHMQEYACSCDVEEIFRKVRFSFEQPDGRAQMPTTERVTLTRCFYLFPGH
UniProt Q14790: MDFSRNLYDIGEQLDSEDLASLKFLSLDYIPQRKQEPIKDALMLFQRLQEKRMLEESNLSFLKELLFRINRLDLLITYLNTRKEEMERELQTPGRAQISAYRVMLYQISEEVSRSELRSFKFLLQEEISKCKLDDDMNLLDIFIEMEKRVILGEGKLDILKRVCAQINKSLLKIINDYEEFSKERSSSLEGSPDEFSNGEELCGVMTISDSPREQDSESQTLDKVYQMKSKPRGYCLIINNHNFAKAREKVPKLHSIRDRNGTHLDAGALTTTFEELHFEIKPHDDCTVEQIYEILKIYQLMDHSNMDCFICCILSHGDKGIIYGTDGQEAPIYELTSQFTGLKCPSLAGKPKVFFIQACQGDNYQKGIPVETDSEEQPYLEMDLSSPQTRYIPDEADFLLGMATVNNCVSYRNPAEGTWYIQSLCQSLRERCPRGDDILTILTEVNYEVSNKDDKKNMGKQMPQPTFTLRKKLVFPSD

Results are given in words; binding and its absence hold for the method and conditions named. Some entries that bind do so weakly or less than the wild type.

The target of the experiment is Shigella OspC3 (Shigella). Put plainly: two-hybrid; yeast MaV103 and MaV203, 96-well format; GAL4BD-OspC effector and GAL4AD-caspase; selection on medium lacking leucine, tryptophan and histidine with 40 mM 3-amino-1,2,4-triazole; growth scored after 7 days at 30°C.
With “full-length human caspase 9 (from UniProt P55211 1-416)”, the binding result is on record as “no binding”.
Consider “full-length human caspase 1 (from UniProt P29466 1-404)”, for which the binding result was “no binding”.
Consider “full-length human caspase 8 (from UniProt Q14790 1-479)”, for which the binding entry was “no binding”.
The value for B1 was “binds”; that for B2 was “no binding”.
For the molecule B3, the binding result is reported as “no binding”.
On to B4, for which the binding entry is on record as “no binding”.
In the case of B5, the binding entry is “no binding”.

These data come from paper PMC12977621.
